# Laboratory results as given in PMC4336329 (PLoS ONE, 2015).
# About 2,200 (0.71%) of roughly 310,000 compounds showed an effect of 50% or more. Effects have a minus sign here. Some of the results follow.
# Target: human ether-à-go-go-related gene (hERG) potassium channel (human, UniProt Q12809)
# Test: primary screen, population patch clamp on CHO cells stably expressing hERG
# human ether-à-go-go-related gene (hERG) potassium channel, sequence (Q12809 whole entry, looked up): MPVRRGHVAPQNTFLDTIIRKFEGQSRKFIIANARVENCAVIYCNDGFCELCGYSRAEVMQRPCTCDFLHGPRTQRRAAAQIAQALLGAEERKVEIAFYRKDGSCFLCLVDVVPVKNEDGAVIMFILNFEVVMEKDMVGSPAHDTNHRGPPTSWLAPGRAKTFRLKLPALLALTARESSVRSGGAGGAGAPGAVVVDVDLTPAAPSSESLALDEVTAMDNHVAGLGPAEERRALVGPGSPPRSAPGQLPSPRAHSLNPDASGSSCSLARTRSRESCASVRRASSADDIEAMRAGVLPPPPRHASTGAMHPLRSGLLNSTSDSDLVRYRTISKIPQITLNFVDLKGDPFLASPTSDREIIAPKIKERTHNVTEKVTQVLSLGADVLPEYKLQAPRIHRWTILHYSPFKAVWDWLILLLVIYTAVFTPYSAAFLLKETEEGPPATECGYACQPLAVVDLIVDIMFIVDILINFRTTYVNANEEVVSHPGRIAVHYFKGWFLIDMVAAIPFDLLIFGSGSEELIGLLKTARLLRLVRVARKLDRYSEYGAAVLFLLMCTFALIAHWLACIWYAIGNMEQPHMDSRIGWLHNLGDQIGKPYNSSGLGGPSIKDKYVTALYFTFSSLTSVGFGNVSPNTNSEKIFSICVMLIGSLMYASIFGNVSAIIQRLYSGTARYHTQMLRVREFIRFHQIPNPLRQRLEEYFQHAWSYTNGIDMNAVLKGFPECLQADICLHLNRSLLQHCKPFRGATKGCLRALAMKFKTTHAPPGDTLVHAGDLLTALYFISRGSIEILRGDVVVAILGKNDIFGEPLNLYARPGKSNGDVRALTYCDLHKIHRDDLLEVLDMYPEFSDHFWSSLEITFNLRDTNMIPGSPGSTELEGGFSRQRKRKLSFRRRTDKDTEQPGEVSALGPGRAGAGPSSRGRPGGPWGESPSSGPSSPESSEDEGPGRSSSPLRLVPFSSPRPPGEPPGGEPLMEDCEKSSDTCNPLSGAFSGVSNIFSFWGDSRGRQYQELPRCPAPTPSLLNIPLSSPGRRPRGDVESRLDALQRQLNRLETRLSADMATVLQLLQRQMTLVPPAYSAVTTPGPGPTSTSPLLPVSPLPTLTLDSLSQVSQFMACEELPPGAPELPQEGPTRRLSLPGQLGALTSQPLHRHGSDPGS
row,SMILES,"hERG current change (%, negative = inhibition) at 1uM [%]"
1,CC(Sc1nc2sccc2c(=O)n1-c1ccccc1)C(N)=O (centres unmarked),9.93
2,COCc1[nH]nc2c1C(c1sccc1C)C(C#N)=C(N)O2 (centres unmarked),5.81
3,COc1ccc(C(=O)NCC(=O)N2CCC3(CC2)NCCc2[nH]cnc23)cc1,15.5
4,COc1ccccc1NC(=O)C1C2C=CC(O2)C1C(=O)O (centres unmarked),7
5,CCN(CC)S(=O)(=O)c1ccc(C(=O)Nc2nnc(NC(=S)Nc3ccccc3)s2)cc1,6.94
6,CCOC(=O)C1=C(O)C(=O)N(Cc2ccccc2)C1,10.8
7,COC(=O)c1sc(SC)c(S(=O)(=O)C(C)C)c1N/N=C(\C#N)S(=O)(=O)c1ccccn1,10.4
8,Cc1cc(C)c2c(N)c(C(=O)Nc3ccc(F)cc3)sc2n1,9.82
9,CCC(c1nc2ccccc2c(=O)n1CCCn1ccnc1)N1C(=O)c2ccccc2C1=O (centres unmarked),-9.91
10,CC(=O)N(Cc1ccccc1)c1nc(-c2ccccc2)cs1,8.75
11,CCc1cc(CNC(=O)CC2C(=O)NCCN2Cc2cccc(OC)c2)on1 (centres unmarked),-4.31
12,Fc1ccc(-c2nnc(NC3=NCCCCC3)o2)cc1,-0.297
13,COc1ccccc1N1CCN(C2CCCN(C(=O)CCc3c(C)noc3C)C2)CC1 (centres unmarked),6.12
14,c1cncc(-c2nc(NCc3ccco3)c3ccccc3n2)c1,4.16
15,CCOc1ccc(S(=O)(=O)N(CC(=O)NC2CCCC2)c2ccc(F)cc2)cc1,13.4
16,CN(C)CCCNC(NC(=O)/C=C/c1ccccc1)C(Cl)(Cl)Cl (centres unmarked),13.5
17,CCC(CC)C(=O)NCCc1cc2ccc(OC)cc2[nH]c1=O,-2
18,O=C(c1ccc(N2CCN(C(=O)c3ccc(F)cc3F)CC2)cc1)c1cccc(F)c1,6.7
19,CCO[C@H]1OC(C(=O)NCc2ccccc2)=C[C@@H](C(C)(C)C)[C@@H]1CCCO,13.1
20,Clc1ccccc1-c1nnc(-c2cccnc2)o1,12.6
21,O=C(CN1C(=O)C2CCCCN2C(=O)c2ccccc21)N1CCCc2ccccc21 (centres unmarked),15.1
22,CCc1nc(Nc2ccc(OC)c(OC)c2)c2nnn(Cc3ccccc3Cl)c2n1,12.1

row,SMILES,"hERG current change (%, negative = inhibition) at 1uM [%]"
1,O=C(CSCC(=O)OCn1nnc2ccccc2c1=O)Nc1ccc(Cl)cc1,12.4
2,COc1ccc(CNC(=O)c2cc(=O)c3cc(C)c(C)cc3o2)cc1,14.6
3,COc1ccc(C2CC(=O)c3c([nH]c(C(=O)OC(C)C)c3C)C2)cc1OC (centres unmarked),2.15
4,Cc1cc(/C=C(\C#N)C(=O)OCC(=O)Nc2ccc(OC(F)F)cc2)c(C)n1CC(C)C,3.2
5,CC(NC(=O)CCN1C(=O)c2ccccc2S1(=O)=O)c1ccccc1 (centres unmarked),12.6
6,Cn1c(CBr)c(C(=O)c2ccc([N+](=O)[O-])cc2)c(=O)n(C)c1=O,9.7
7,CS(=O)(=O)N1N=C(c2ccc(Br)cc2)CC1c1cccs1 (centres unmarked),15.9
8,O=C(CNC(=O)c1ccc(Br)o1)NNC(=O)COc1ccccc1Cl,10.1
9,N/C(=N\OC(=O)COc1ccc(Br)cc1)c1cccc([N+](=O)[O-])c1,7.88
10,CC(C)(C#N)Nn1cnnc1,9.44
11,CCN(CC)CCCNC(=O)c1nn2c(C(F)(F)F)cc(-c3ccccc3)nc2c1Cl,-3.58
12,O=C(N/N=C/c1cccnc1)c1ccc(Cn2cc([N+](=O)[O-])cn2)o1,8.59
13,O=C(c1nc[nH]c1C(=O)N1CCc2ccccc2C1)N1CCc2ccccc2C1,13.6
14,Cc1ccc(/C=N/NC(=O)CSc2nnc(-c3ccccc3)n2-c2ccc(Cl)cc2)o1,7.81
15,Cc1cc(C(=O)COC(=O)c2ccc(O)cc2)c(C)n1CCc1ccc(F)cc1,11
16,CCO[C@H]1OC(C(=O)NCc2ccccc2)=C[C@@H](c2ccccc2)[C@@H]1CCCO,10.3
17,Cc1ccc(-c2csc3nc(SCC(N)=O)n(Cc4ccccc4)c(=O)c23)cc1,10.1
18,CCOC(=O)c1cccc(NC(=S)N2CCN(c3ncc4c(=O)c(C(=O)O)cn(CC)c4n3)CC2)c1,14.5
19,N#Cc1ccc(Sc2nc3ccccc3[nH]2)cc1C#N,1.46
20,O=C(NCc1ccccn1)C1CCN(S(=O)(=O)N2CCCC2)CC1,-1.52
21,NC1=NS(=O)(=O)NC1c1ccc(Cl)cc1 (centres unmarked),11.1
22,CCCn1nnc(NC(=O)c2ccco2)n1,5.44

row,SMILES,"hERG current change (%, negative = inhibition) at 1uM [%]"
1,O=C(COC(=O)C1CCCN1C(=O)C12CC3CC(CC(C3)C1)C2)c1ccc(Br)cc1 (centres unmarked),6.91
2,O=C(Nc1ccc(N2CCN(C(=O)c3ccco3)CC2)cc1)C(c1ccccc1)c1ccccc1,8.79
3,COc1cc(C(=O)Nc2cccc(C)c2C)ccc1OCC(=O)N1CCOCC1,8.64
4,Cc1cccc(N(C)C(=O)c2cnn(-c3ccccc3)c2C)c1,12.7
5,O=C(NNC1=NC2(CCCC2)Cc2ccccc21)c1cccnc1,18.4
6,Cc1cccc(OCCn2c(NC(=O)c3ccco3)nc3ccccc32)c1,13.7
7,CCOC(=O)N1CCC(O)(c2cc(C)c(C)cc2C)CC1,4.22
8,COc1ccc(C)cc1NC(=O)c1cc(S(=O)(=O)N2CCCCC2)ccc1N1CCOCC1,-9.63
9,N#Cc1ccc(-c2ccc3c(c2)OCO3)nc1SCC(=O)OCc1ccccc1,10.3
10,O=C(NC(=Nc1ccccc1)N1CCOCC1)Nc1ccccc1,10
11,COc1ccccc1C(=O)Nc1cc2c(ccc3ccccc32)oc1=O,7.07
12,CC1CCc2nn(CC(=O)NCc3ccc(F)cc3)cc2C1 (centres unmarked),8.55
13,CCN1CCN(c2cc(C)c3cc(NC(=S)N(C)Cc4ccccc4)ccc3n2)CC1,-56.7
14,Nc1c(-c2ccccc2)cnn1C1CCS(=O)(=O)C1 (centres unmarked),13.9
15,Cc1ccc(O)c(NC(=O)C2=CC(c3cccs3)=NS(=O)(=O)N2C)c1,5.63
16,CCCNc1c(NS(=O)(=O)c2ccc(Cl)s2)c(=O)oc2ccccc12,-13.8
17,COC(=O)c1sc2ccccc2c1NC(=O)c1ccc(S(=O)(=O)N2CCCCC2)cc1,6.69
18,COc1ccc(CN2CC(C(=O)NCc3cccc(OC)c3)CC2=O)cc1 (centres unmarked),4.94
19,CCOC(=O)N1CCN(C(=O)CS(=O)(=O)Cc2nc(-c3cccc(OC)c3)oc2C)CC1,-0.994
20,O=C(N/N=C/c1ccc(O)c(O)c1)c1cccc(S(=O)(=O)N2CCCC2)c1,-15.2
21,O=C(Nc1ccc(F)cc1F)c1ccco1,3.86
22,NS(=O)(=O)c1ccc(NC(=O)COc2ccc(C(=O)c3ccc(F)cc3)cc2)cc1,7.6

row,SMILES,"hERG current change (%, negative = inhibition) at 1uM [%]"
1,Cc1nc(Cc2nnc(SCC(=O)Nc3c(C)cccc3C)o2)cs1,15.5
2,COc1ccccc1CNC(=O)c1ccc(N(C)S(=O)(=O)c2ccc(C)cc2)cc1,11.8
3,CN(C)c1ccc(/C=C/c2cc[n+](C)cc2)cc1.[I-],-0.469
4,CC(C)NC(=O)CCn1ccc2cc(S(=O)(=O)N3CCCC3)ccc21,16.5
5,CC(NC(=S)NCCc1ccccc1)C(c1cccs1)N1CCN(Cc2ccccc2)CC1 (centres unmarked),11.8
6,N#Cc1cc2c(nc1S(=O)(=O)Cc1ccccc1)CCCC2,5.82
7,COc1ccc(-n2c(-c3ccccc3Br)nc3ccccc3c2=O)cc1,3.22
8,Cc1csc(=O)n1CCC(=O)OC(C)C(=O)Nc1ccc(N2CCOCC2)cc1 (centres unmarked),3.65
9,CCOC(=O)c1oc2cc(C)cc(C)c2c1C,14.1
10,O=C(Nc1ccc(S(=O)(=O)Nc2ccccn2)cc1)c1ccccc1,12.6
11,CCOc1cc(Cl)c(S(=O)(=O)NCc2cccnc2)cc1Cl,7.02
12,COc1cccc(CN2CC(C(=O)N(C)Cc3nc4ccc(F)cc4[nH]3)CCC2=O)c1 (centres unmarked),8.59
13,Cc1ccc2c(C)c(C(=O)NCCc3ccco3)oc2c1C,5.36
14,O=[N+]([O-])c1cccc(/C=N/NC2CCS(=O)(=O)C2)c1 (centres unmarked),7.34
15,O=C(Nc1ccccc1)c1ccc(NCc2cccnc2)c(S(=O)(=O)N2CCOCC2)c1,-1.51
16,O=C(COc1ccccc1)Nc1ccc2oc(=O)ccc2c1,-4.97
17,O=C(OCn1nnc2ccccc2c1=O)c1cn(-c2ccccc2)nc1-c1cccnc1,10.9
18,COCCCNC(=S)N1CCCN(c2nc3cc(C)c(C)cc3cc2C#N)CC1,17.7
19,CCOc1ccc(N=Cc2c(O)cc(C)oc2=O)cc1,8.98
20,Cc1ccc(C(NC(=O)NN2CCN(C)CC2)C(Cl)Cl)cc1F (centres unmarked),10
